These results are taken from PMC3776750.

These are yes or no findings as the source states them, for the method shown. For some of these results: In cells and extracts the contact can be indirect. Some binding calls cover weakened binding; strength is not graded here. Where a sequence is shown, tags or fusion partners need not be part of it.

The target of test [1] is T1, CLUC-CPL1 (Arabidopsis thaliana) (UniProt Q5YDB6).
T1 sequence: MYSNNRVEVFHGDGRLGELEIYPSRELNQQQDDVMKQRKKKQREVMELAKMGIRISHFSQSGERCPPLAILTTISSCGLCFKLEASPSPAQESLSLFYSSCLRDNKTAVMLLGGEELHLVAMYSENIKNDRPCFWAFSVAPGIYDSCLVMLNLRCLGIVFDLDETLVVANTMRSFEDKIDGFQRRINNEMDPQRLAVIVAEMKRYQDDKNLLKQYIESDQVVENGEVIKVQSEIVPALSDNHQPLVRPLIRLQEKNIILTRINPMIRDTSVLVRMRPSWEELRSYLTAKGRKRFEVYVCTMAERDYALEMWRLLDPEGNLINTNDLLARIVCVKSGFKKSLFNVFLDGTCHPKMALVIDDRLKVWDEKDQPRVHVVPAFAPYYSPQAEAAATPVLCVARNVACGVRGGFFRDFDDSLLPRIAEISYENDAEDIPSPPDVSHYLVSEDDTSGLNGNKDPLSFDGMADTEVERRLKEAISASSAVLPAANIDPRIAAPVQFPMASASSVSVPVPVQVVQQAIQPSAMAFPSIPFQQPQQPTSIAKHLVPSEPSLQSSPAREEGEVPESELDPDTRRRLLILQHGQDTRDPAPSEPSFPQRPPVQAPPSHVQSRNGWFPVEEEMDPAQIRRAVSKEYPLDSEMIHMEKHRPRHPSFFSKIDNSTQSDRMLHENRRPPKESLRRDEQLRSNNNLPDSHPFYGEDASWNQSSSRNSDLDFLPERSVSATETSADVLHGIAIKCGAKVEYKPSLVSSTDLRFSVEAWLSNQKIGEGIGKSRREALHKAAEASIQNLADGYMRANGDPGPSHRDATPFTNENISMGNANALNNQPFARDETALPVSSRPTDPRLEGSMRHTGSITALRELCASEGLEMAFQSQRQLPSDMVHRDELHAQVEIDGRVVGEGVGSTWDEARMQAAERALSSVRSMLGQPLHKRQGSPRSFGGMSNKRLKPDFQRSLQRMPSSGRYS
The test can be described thus: split reporter; luciferase complementation imaging (LuCI): NLUC and CLUC fusions with P19 infiltrated by Agrobacterium into N. benthamiana leaves; luminescence imaged 3 d after infiltration.

The target in test [2] is T2, CLUC-CPL1 1-714 (Arabidopsis thaliana) (UniProt Q5YDB6).
T2 sequence: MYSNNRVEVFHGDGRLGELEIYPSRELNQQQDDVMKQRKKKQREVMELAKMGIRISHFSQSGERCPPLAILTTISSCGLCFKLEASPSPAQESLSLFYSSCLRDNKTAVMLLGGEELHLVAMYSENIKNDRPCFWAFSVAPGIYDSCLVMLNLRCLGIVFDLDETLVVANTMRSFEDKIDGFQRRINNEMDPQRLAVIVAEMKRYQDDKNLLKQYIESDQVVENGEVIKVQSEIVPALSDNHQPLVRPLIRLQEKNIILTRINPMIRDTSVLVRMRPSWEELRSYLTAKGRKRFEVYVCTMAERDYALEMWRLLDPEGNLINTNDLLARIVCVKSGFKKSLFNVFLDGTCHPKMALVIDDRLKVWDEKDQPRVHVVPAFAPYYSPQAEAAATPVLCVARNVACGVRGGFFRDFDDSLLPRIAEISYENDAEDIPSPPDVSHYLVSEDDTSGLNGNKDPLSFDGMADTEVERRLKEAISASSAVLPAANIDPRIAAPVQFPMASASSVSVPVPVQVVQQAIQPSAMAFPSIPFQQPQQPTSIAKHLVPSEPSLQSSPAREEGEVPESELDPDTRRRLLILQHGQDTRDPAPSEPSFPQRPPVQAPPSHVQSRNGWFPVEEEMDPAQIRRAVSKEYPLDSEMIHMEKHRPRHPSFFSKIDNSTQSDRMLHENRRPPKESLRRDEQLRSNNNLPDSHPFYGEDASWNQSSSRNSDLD
The test is described as above.

In test [3] the target is T3, CLUC-CPL1 699-967 (Arabidopsis thaliana) (UniProt Q5YDB6).
T3 sequence: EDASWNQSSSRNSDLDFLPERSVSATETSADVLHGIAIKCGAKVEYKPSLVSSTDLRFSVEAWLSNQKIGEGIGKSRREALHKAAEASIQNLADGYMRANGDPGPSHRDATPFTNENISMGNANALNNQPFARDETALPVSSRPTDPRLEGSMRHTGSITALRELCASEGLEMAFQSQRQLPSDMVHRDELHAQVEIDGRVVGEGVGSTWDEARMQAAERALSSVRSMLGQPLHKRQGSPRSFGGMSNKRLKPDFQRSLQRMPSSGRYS
Described as above.

For test [4], the target named is T4, GAL4 DNA binding domain fused with CPL1 (Arabidopsis thaliana) (UniProt Q5YDB6).
T4 sequence: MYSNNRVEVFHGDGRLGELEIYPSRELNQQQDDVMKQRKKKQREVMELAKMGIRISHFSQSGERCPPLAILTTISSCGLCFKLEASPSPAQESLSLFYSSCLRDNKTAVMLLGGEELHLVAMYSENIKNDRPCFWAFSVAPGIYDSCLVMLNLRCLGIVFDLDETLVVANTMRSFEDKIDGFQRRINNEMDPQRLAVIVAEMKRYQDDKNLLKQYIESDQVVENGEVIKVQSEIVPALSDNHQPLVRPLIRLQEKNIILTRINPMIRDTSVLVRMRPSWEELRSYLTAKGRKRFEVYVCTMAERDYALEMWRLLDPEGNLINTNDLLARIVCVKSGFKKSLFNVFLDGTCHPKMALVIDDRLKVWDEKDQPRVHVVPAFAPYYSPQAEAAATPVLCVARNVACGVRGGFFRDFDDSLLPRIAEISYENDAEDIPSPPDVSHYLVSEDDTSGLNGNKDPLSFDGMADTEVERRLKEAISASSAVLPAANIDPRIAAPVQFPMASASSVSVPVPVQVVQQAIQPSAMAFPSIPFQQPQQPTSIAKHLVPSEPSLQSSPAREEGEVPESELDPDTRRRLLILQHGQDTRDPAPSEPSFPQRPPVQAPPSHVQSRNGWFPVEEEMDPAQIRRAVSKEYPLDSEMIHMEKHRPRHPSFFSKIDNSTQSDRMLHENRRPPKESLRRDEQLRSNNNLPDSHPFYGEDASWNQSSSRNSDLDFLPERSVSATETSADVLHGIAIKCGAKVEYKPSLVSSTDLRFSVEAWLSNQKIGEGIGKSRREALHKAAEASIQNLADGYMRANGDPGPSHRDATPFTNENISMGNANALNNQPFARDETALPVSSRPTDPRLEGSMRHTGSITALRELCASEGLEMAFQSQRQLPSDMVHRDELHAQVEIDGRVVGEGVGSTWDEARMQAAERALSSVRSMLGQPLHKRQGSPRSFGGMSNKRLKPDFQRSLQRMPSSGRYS
The test is described as follows: two-hybrid; yeast PJ69-4A, GAL4 BD (pBUTE^GW) and AD (pGAD^GW) fusions; growth on SD -ULHA at 28°C for 48 h.

B1: NLUC-HYL1 (HYL1 1-223) (domain or fragment, UniProt O04492 1-223)
chain: MTSTDVSSGVSNCYVFKSRLQEYAQKYKLPTPVYEIVKEGPSHKSLFQSTVILDGVRYNSLPGFFNRKAAEQSAAEVALRELAKSSELSQCVSQPVHETGLCKNLLQEYAQKMNYAIPLYQCQKVETLGRVTQFTCTVEIGGIKYTGAATRTKKDAEISAGRTALLAIQSDTKNNLANYNTQLTVLPCEKKTIQAAIPLKETVKTLKARKAQFKKKAQKGKRT
As for B1, the binding result is given as “binds” in test [1], “no binding” in test [2] and “binds” in test [3].

B2: NLUC-SE (SERRATE) (protein, UniProt Q9ZVD0 1-720)
chain: MADVNLPPSDSVDNRLPEKSTSSSPPPPPPSSSLPQQEQEQDQQQLPLRRERDSRERRDERDIERPPPNRRERDRSPLPPPRRDYKRRPSLSPPPPYRDRRHSPPQRRSPPQKRYRRDDNGYDGRRGSPRGGYGPPDRRFGYDHGGGYDREMGGRPGYGDERPHGRFMGRYQDWEGGRGGYGDASNSGNPQRDGLMSYKQFIQELEDDILPSEAERRYQEYKSEYITTQKRAFFNTHKEEDWLKNKYHPTNLLSVIERRNDLAQKVAKDFLLDLQSGTLDLGPAVTALNKSGRTSEPNSEDEAAGVGKRKRHGMGGAKENELLSAAPKAPSFTSDPKRILTDVEQTQALVRKLDSEKKIEENVLQGSETEKSGREKLHSGSTGPVVIIRGLTSVKGLEGVELLDTLVTYLWRVHGLDYYGKVETNEAKGLRHVRAEGKVSDAKGDENESKFDSHWQERLKGQDPLEVMAAKEKIDAAATEALDPHVRKIRDEKYGWKYGCGAKGCTKLFHAAEFVYKHLKLKHTELVTELTTKVREELYFQNYMNDPNAPGGQPATQQSGPRDRPIRRKPSMENRLRDDRGGRRERDGRANGNDRNDRSEDQQRGDNDGGNPGEVGYDAFGGQGGVHVPPFLSDINPPPMLMPVPGAGPLGPFVPAPPEVAMQMFRDPSGPNPPFEGSGRGGPAPFLLSPAFRQDPRRLRSYQDLDAPEEEVTVIDYRSL
As to B2, the binding entry in test [1] is listed as “binds”; in test [2], “no binding”; in test [3], “binds”.

B3: GAL4 activation domain fused with SE (protein, UniProt Q9ZVD0 1-720)
chain: MADVNLPPSDSVDNRLPEKSTSSSPPPPPPSSSLPQQEQEQDQQQLPLRRERDSRERRDERDIERPPPNRRERDRSPLPPPRRDYKRRPSLSPPPPYRDRRHSPPQRRSPPQKRYRRDDNGYDGRRGSPRGGYGPPDRRFGYDHGGGYDREMGGRPGYGDERPHGRFMGRYQDWEGGRGGYGDASNSGNPQRDGLMSYKQFIQELEDDILPSEAERRYQEYKSEYITTQKRAFFNTHKEEDWLKNKYHPTNLLSVIERRNDLAQKVAKDFLLDLQSGTLDLGPAVTALNKSGRTSEPNSEDEAAGVGKRKRHGMGGAKENELLSAAPKAPSFTSDPKRILTDVEQTQALVRKLDSEKKIEENVLQGSETEKSGREKLHSGSTGPVVIIRGLTSVKGLEGVELLDTLVTYLWRVHGLDYYGKVETNEAKGLRHVRAEGKVSDAKGDENESKFDSHWQERLKGQDPLEVMAAKEKIDAAATEALDPHVRKIRDEKYGWKYGCGAKGCTKLFHAAEFVYKHLKLKHTELVTELTTKVREELYFQNYMNDPNAPGGQPATQQSGPRDRPIRRKPSMENRLRDDRGGRRERDGRANGNDRNDRSEDQQRGDNDGGNPGEVGYDAFGGQGGVHVPPFLSDINPPPMLMPVPGAGPLGPFVPAPPEVAMQMFRDPSGPNPPFEGSGRGGPAPFLLSPAFRQDPRRLRSYQDLDAPEEEVTVIDYRSL
B3: the binding result in test [4] is “binds”.
